# Laboratory results from PubChem BioAssay AID485294 (National Center for Advancing Translational Sciences (NCATS), 2010).
# Values joined by “and” are separate entries in the source; they are usually repeats but may differ in a detail not shown here. Equal entries are not always repeated. The campaign covered roughly 370,000 compounds. About 150 (0.041%) were called active. The shares of active, inactive and inconclusive entries below differ from those in the screen. The call rests on the fitted dose curve; in most records, active means well fitted inhibition curve with a large enough effect; inconclusive means small, poorly fitted or top-dose-only effect; inactive means flat fitted curve, though single readings scatter. Potencies of inconclusive entries are doubtful fits and often do not repeat.
# Biological target: Beta-lactamase (Escherichia coli (strain K12)) (UniProt P00811)
# Test: qHTS Inhibitors of AmpC Beta-Lactamase (assay with detergent); further: nearly all actives have a fitted effect of over 25% in size;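 on activity change, negative = inhibition: 0% = no-compound wells and -100% = no-enzyme wells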
# Settings: AmpC hydrolysis of nitrocefin, absorbance 480 nm, 0.01% Triton; activity change, negative = inhibition: at 114 µM (top of the series)
# Description: NIH Molecular Libraries Probe Production Network [MLPCN] NIH Chemical Genomics Center [NCGC] Assay Provider: Professor Brian Shoichet, UCSF Assay Overview: This aggregation profiling approach exploits the sensitivity of aggregate formation to detergent. Inhibition of b-lactamase is measured in the presence and absence of 0.01% Triton X-100. This particular assay had the prescence of 0.01% Triton X-100. See Pubchem assay "Promiscuous and Specific Inhibitors of AmpC Beta-Lactamase (assay without detergent)" for related screen. Compounds that inhibit only in the absence of detergent are considered likely promiscuous aggregators. A screen of 1,030 compounds was performed in Brian Shoichet's lab in 96-well format. AmpC activity was measured by following the absorbance at 480 nm. Nitrocefin is a chromogenic substrate: while nitrocefin is yellow (lmax 390 nm), the product of its hydrolysis is red (lmax 486 nm, 17,000 M-1). AmpC beta lactamase was provided by Shoichet Lab, UCSF.
# Buffer: 20 mM phosphate buffer, pH 7.0 Triton X-100: No Detergent screen: 0.0001%, Detergent screen: 0.01%. Reagents/Controls: Buffer in columns 3 and 4 as negative control (no enzyme). 5.3 nM AmpC in columns 1, 2, 5-48. Titration of UCSF compound 9 control (from 10 mM, then 1:2) pin-transferred to column 2. Column 1 is neutral (100% activity). Assay Steps: Six uL of reagents were dispensed to 1536-well Greiner black clear bottom plates. Compounds and controls (23 nL) were transferred via Kalypsys PinTool. The plates were incubated for 15 min at room temperature, and then 2 uL of 800 uM solution of nitrocefin was added to start the reaction. The plates were immediately transferred to and read every 20 seconds for 4 min on ViewLux (Perkin-Elmer) High-throughput CCD imager using 480 nm absorbance protocol. During dispense, reagent bottles were kept submerged into 4 deg C water bath. Keywords: NIH Roadmap, MLSCN, MLI, MLSMR, qHTS, NCGC, AmpC Beta-Lactamase, Aggregation
# Potency means the concentration at half of the fitted maximal effect; tags describe the fitted curve by direction and shape.
# Chain of UniProt P00811 (P00811 whole entry, looked up): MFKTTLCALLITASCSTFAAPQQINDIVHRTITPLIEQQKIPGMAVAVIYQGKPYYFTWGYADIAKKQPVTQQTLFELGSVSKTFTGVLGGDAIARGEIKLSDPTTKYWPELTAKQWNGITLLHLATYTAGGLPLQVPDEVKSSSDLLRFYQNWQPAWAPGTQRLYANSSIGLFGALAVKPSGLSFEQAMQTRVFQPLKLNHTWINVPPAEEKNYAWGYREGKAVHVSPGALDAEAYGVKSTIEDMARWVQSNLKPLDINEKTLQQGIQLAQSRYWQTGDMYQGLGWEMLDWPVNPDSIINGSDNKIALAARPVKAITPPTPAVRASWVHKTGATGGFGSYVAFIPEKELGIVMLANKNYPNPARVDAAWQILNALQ
SMILES,Potency,"activity change, negative = inhibition"
Cc1ccc(S(=O)(=O)N(CC(=O)c2ccccc2)C(=O)N2CCN(C)CC2)cc1,"inconclusive: 0.631 µM [inhibitor, partial curve, poor fit]",–
COc1ccc(-n2nc3ccccc3n2)cc1,"inconclusive: 112 µM [inhibitor, partial curve, poor fit]",–
CCCCN(C(=O)CSCC(=O)Nc1cccc(C)c1)c1c(N)n(CCCC)c(=O)[nH]c1=O,–,inactive: 0%
O=C(NCC(c1cccs1)N1CCOCC1)C1CCN(S(=O)(=O)c2c(Cl)cccc2Cl)CC1 (stereo not given),"inconclusive: 0.631 µM [inhibitor, full curve, poor fit]",–
O=C(Nc1ccc(OC(F)(F)F)cc1)c1cnccn1,–,inactive: -0.701%
CC(=O)N(Cc1cc2cc(C)ccc2[nH]c1=O)c1cccc(C)c1C,"inconclusive: 44.7 µM [inhibitor, partial curve]",–
Cc1cc(OC(C)C(N)=O)nc(-c2ccccc2)n1 (stereo not given),"inconclusive: 5.62 µM [inhibitor, partial curve, poor fit]",–
C/C(=N\OCC(=O)OCC(=O)NC(=O)c1ccccc1)c1ccc2c(c1)OCO2,"inconclusive: 79.4 µM [inhibitor, partial curve, poor fit]",–
Cc1ccnc(NS(=O)(=O)c2ccc(NC(=O)c3ccc(N4C(=O)CCC4=O)cc3)cc2)n1,–,inactive: -8.42%
Cc1cccc(OCC(=O)Nc2ccc3c4c(cccc24)CC3)c1C,"inconclusive: 28.2 µM [inhibitor, full curve, poor fit]",–
CCc1ccc(S(=O)(=O)NCC2(N3CCOCC3)CCCCC2)cc1,"inconclusive: 0.891 µM [inhibitor, full curve, poor fit]",–
COc1ccc(OC(=O)c2cccnc2)cc1,"inconclusive: 0.631 µM [inhibitor, full curve, poor fit]",–
COc1ccc(/C=C/C(=O)OCC(=O)NCc2ccco2)cc1OC,–,inconclusive: -18.3% [inhibitor]
Cn1c(=O)[nH]c(=O)c2c1nc(N1CCCCCC1)n2Cc1cccc2ccccc12,"inconclusive: 4.47 µM [inhibitor, full curve, poor fit]",–
O=C(NCc1ccccc1)C1CCCC1,–,inactive: -8.33%
Cc1ccc2c(=O)cc(C(=O)Nc3nnc(CC(C)C)s3)oc2c1C,–,inactive: 15.2%
C[C@@H]1NC(=O)[C@H](CCCN=C(N)N)NC(=O)c2cc([N+](=O)[O-])cc(I)c2OCC[C@@H](C(N)=O)NC1=O,"inconclusive: 0.631 µM [inhibitor, full curve, poor fit]",–
Nc1c(C(=O)c2cccs2)oc2ccccc12,"inconclusive: 0.562 µM [inhibitor, full curve, poor fit]",–
CCOc1ccc(S(=O)(=O)N(CC(=O)NCCSCc2ccc(C)cc2)c2ccccc2)cc1,"inconclusive: 79.4 µM [inhibitor, single point]",–
CCOC(=O)C(C)n1cnc2c(nnn2-c2ccc(C)cc2)c1=O (stereo not given),"inconclusive: 2.24 µM [inhibitor, full curve, poor fit]",–
O=C(O)CSCCn1cccn1,"inconclusive: 0.631 µM [inhibitor, full curve, poor fit]",–
O=C(Nc1ccc(Cc2ccncc2)cc1)C1CCC(N2C(=O)C3C4C=CC(C4)C3C2=O)CC1 (stereo not given),–,inactive: -2.58%

SMILES,Potency,"activity change, negative = inhibition"
Cc1ccc(C(=O)CSc2nc(O)cc(=O)[nH]2)cc1C,"inconclusive: 56.2 µM [inhibitor, partial curve, poor fit]",–
NC(=O)c1ccsc1NC(=O)c1ccc(N2CCCC2=O)cc1,–,inactive: 4.62%
O=C(CN1C(=O)CN=C(c2ccccc2)c2ccccc21)NCc1ccco1,–,inactive: 2.51%
S=C(NCCc1cccc(Cl)c1)NCc1ccccc1,–,inactive: 2.13%
CCN(C(=O)CSc1nnnn1-c1ccccc1)C1CCS(=O)(=O)C1 (stereo not given),"inconclusive: 44.7 µM [inhibitor, partial curve, poor fit]",–
COc1cc(C)c(C(C)C)cc1S(=O)(=O)NCCCn1ccnc1,"inconclusive: 44.7 µM [inhibitor, partial curve, poor fit]",–
Cc1ccc(NC(=O)CC2C(=O)N(Cc3ccccc3)C(=S)N2NC(=O)c2ccccc2)c(C)c1 (stereo not given),"inconclusive: 100 µM [inhibitor, partial curve]",–
COCCCNC(=O)c1ccc(CS(=O)(=O)c2ccc(Br)cc2)o1,"inconclusive: 1.78 µM [inhibitor, full curve, poor fit]",–
COc1ccccc1NS(=O)(=O)c1cccc(C(=O)NCC(c2ccc(F)cc2)N2CCOCC2)c1 (stereo not given),–,inactive: -2.66%
CCCNS(=O)(=O)c1ccc(CCC(=O)Nc2cc(Cl)ccc2Oc2ccccc2)cc1,"inconclusive: 2.51 µM [inhibitor, partial curve, poor fit]",–
CN1CCN(C(CNC(=O)C(=O)Nc2ccccc2)c2ccc3c(c2)OCO3)CC1 (stereo not given),–,inactive: 5.76%
O=C(CSc1n[nH]c(=O)n1C1CC1)Nc1cc(Cl)ccc1Oc1ccccc1,"inconclusive: 100 µM [inhibitor, partial curve, poor fit]",–
Cc1nc(C)c(-c2csc(Nc3ccc(F)cc3)n2)s1,"inconclusive: 1.12 µM [inhibitor, full curve, poor fit]",–
Cc1noc(C)c1C(=O)Nc1ccc(C#N)cc1,"inconclusive: 17.8 µM [inhibitor, full curve, poor fit]",–
Nc1ccc(S(=O)(=O)N2CCOCCOCCOCCOCCOCC2)cc1,"inconclusive: 4.47 µM [inhibitor, full curve, poor fit]",–
CN(C)S(=O)(=O)c1ccc(S(=O)(=O)NC2CCOC(C)(C)C2)cc1 (stereo not given),"inconclusive: 70.8 µM [inhibitor, partial curve, poor fit]",–
CCCOc1ccc(N2C(=O)C3ON(c4ccccc4)C(c4ccc(O)c(OC)c4)C3C2=O)cc1 (stereo not given),–,inconclusive: -19.8% [inhibitor]
CCc1cccc(C)c1NC(=O)C1CCCN1C(=O)NCc1ccccc1 (stereo not given),"inconclusive: 1.58 µM [inhibitor, full curve, poor fit]",–
NC(=O)C[C@@H]1NC(=O)CNC(=O)c2cc([N+](=O)[O-])cc(I)c2NCCC(C(N)=O)NC1=O (stereo not given in full),"inconclusive: 2.82 µM [inhibitor, full curve]",–
CCCCCCn1c(C(C)O)nc2ccccc21 (stereo not given),"inconclusive: 2.82 µM [inhibitor, full curve, poor fit]",–
COCCN(CCOC)C(=O)c1cc2c(=O)n3ccccc3nc2s1,–,inactive: 5.53%
CCc1nnc(NC(=O)CSc2nnc(-c3cc4ccccc4cc3O)n2CCOC)s1,"inconclusive: 44.7 µM [inhibitor, single point]",–

SMILES,Potency,"activity change, negative = inhibition"
C=CCn1c(O)c(CN2CCCCC2)c(C)c(C#N)c1=O,–,inactive: 6.01%
Cc1cc2c3c(c1)C1(C(=O)N3C(C)(C)CC2C)C(C#N)=C(N)Oc2cc(O)ccc21 (stereo not given),–,inactive: -4.76%
CCS(=O)(=O)N1CCN(C(=O)c2ccco2)CC1,"inconclusive: 3.98 µM [inhibitor, full curve, poor fit]",–
CC1CCCC(NC(=O)C2CCCN2S(=O)(=O)c2cccc3nsnc23)C1C (stereo not given),"inconclusive: 7.08 µM [inhibitor, full curve, poor fit]",–
CC1(C)NC(=O)N(CCCCOc2ccc(Br)cc2Cl)C1=O,"inconclusive: 25.1 µM [inhibitor, full curve, poor fit]",–
Cc1ccc(C)c(NC(=O)CCN2C(=O)c3ccccc3Sc3ncccc32)c1,–,inactive: -4.07%
COc1ccc(CCNC(=O)CSCc2n[nH]c(=O)[nH]2)cc1OC,"inconclusive: 8.91 µM [inhibitor, full curve, poor fit]",–
Cc1cc(C)nc(SCc2ccc(C(=O)N/N=C3\CCCC(=O)C3)cc2)n1,"inconclusive: 39.8 µM [inhibitor, partial curve]",–
CC(C)C(=O)Nc1ccc(NC(=O)c2ccc3c(c2)OCO3)cc1,"inconclusive: 28.2 µM [inhibitor, full curve, poor fit]",–
N#Cc1ccsc1NC(=O)c1cnccn1,"inconclusive: 5.01 µM [inhibitor, full curve, poor fit]",–
C=CCN1C(=O)N/C(=C/c2ccc(N3CCOCC3)o2)C1=O,"inconclusive: 89.1 µM [inhibitor, partial curve]",–
Cc1ccc(S(=O)(=O)CCC(=O)OC(C)C(=O)NC2CCCCC2C)cc1 (stereo not given),"inconclusive: 112 µM [inhibitor, partial curve, poor fit]",–
O=C(NC(CC(=O)N1CCCC(C(F)(F)F)C1)c1ccccc1)c1ccccc1Cl (stereo not given),–,inactive: -0.886%
CCOc1ccc(OCC)c(NC(=O)CN2CCN(c3cccc(C)c3)C(C)C2)c1 (stereo not given),"inconclusive: 7.94 µM [inhibitor, full curve, poor fit]",–
COc1ccc(N=C2CCCN2CC(N)=O)cc1,"inconclusive: 44.7 µM [inhibitor, partial curve, poor fit]",–
CC(=O)Nc1ccc(S(=O)(=O)N=S(C)C)cc1,"inactive and inconclusive: 50.1 µM [inhibitor, partial curve]",–
c1ccc(-c2nc3c([nH]2)CCc2nonc2-3)cc1,–,inactive: -12.1%
C=CCNCCCCOc1ccc(Br)cc1C,"inconclusive: 89.1 µM [inhibitor, single point]",–
N/C(COc1ccc(C(=O)O)cc1)=N\O,"inconclusive: 0.1 µM [inhibitor, full curve, poor fit]",–
CC1=C/C(=N\NC(=O)c2ccccc2)CC1,"inconclusive: 3.98 µM [inhibitor, full curve, poor fit]",–
COc1nc(OC/C(N)=N/O)nc(N2CCOCC2)n1,"inconclusive: 5.01 µM [inhibitor, single point]",–
